# Laboratory results: patent publication US11779649B2, “Antibodies to PMEL17 and conjugates thereof” (Novartis AG, priority 2018, dated 2023)
# Residue numbers refer to the chain shown, from its start.
# B1: G4-(B1) (conjugate)
# heavy: QVQLVQSGAEVKKPGSSVKVSCKASGGTFSTYAISWVRQAPGQGLEWMGRIIPILGIANYAQKFQGRVTITADESTSTAYMELSSLRSEDTAVYYCAREVRMIFDYWGQGTLVTVSSASTKGPSVFPLAPSSKSTSGGTAALGCLVKDYFPCPVTVSWNSGALTSGVHTFPAVLQSSGLYSLSSVVTVPSSSLGTQTYICNVNHKPSNTKVDKRV[in this place human IgG1 Fc with S375C (EU numbers)]
# light: DIQMTQSPSSLSASVGDRVTITCRASQSISSYLAWYQQKPGKAPKLLIYAASSLQSGVPSRFSGSGSGTDFTLTISSLQPEDFATYYCQQSYDYYTFGQGTKVEIKRTVAAPSVFIFPPSDEQLKSGTASVVCLLNNFYPREAKVQWKVDNALQSGNSQESVTEQDSKDSTYSLSSTLTLSKADYEKHKVYACEVTHQGLSSPVTKSFNRGEC
# B2: G1-(B1) (conjugate)
# heavy: QVQLVQSGAEVKKPGSSVKVSCKASGGTFSDYAITWVRQAPGQGLEWMGGIIPIFGTANYAQKFQGRVTITADESTSTAYMELSSLRSEDTAVYYCAREGGLLTDISYSRYWFAYWGQGTLVTVSSASTKGPSVFPLAPSSKSTSGGTAALGCLVKDYFPCPVTVSWNSGALTSGVHTFPAVLQSSGLYSLSSVVTVPSSSLGTQTYICNVNHKPSNTKVDKRV[in this place human IgG1 Fc with S375C (EU numbers)]
# light: DIELTQPPSVSVSPGQTASITCSGDALRDKFVYWYQQKPGQAPVLVIYDDNNRPSGIPERFSGSNSGNTATLTISGTQAEDEADYYCQSWDHSYSLVVFGGGTKLTVLGQPKAAPSVTLFPPSSEELQANKATLVCLISDFYPGAVTVAWKADSSPVKAGVETTTPSKQSNNKYAASSYLSLTPEQWKSHRSYSCQVTHEGSTVEKTVAPTECS
# B3: G1-3J-DAR4-(B1): anti-PMEL17 antibody G1 with 3J light chain conjugated to (B1), DAR4 (conjugate)
# heavy: B2 heavy
# light: B2 light with D1S, I2Y, P8L, S13A, P14L, S19R, G76R, T77A, E80G
# B4: G1-3R-DAR4-(B1): anti-PMEL17 antibody G1 with 3R light chain conjugated to (B1), DAR4 (conjugate)
# heavy: B2 heavy
# light: B2 light with D1S, I2Y, A42S, E80M
# Assays:
# 92.1 cells = experiment: Annexin V flow cytometry apoptosis assay, 92.1 cells; assay type: cell-based; details: FIG. 7
# Protocol: (§1) 92.1 and MIAPACA cells were seeded in 96-well plates (5000 cells per well) and treated with increasing concentrations of Compound (A1), Compound (A2), and a fixed dose of Staurosporine (100 nM, positive control) as indicated. Following drug treatment for 96, cells were subjected to fluorescence-activated flow cytometry using an Annexin V antibody conjugated to a fluorescent dye. Data presented as mean of 3 independent replicates.
# as §1, with “92.1” for “92.1 and MIAPACA”, “3207-(B1) (Isotype control), G4-(B1),” for “Compound (A2),”, “G1-(B1)” for “a fixed dose of Staurosporine (100 nM, positive control)”
# [1] = tested on: 92.1-luciferase subcutaneous xenografts; experiment: 92.1-luciferase subcutaneous xenograft tumor growth in female nude mice; assay type: in vivo
# Protocol: Treatment (single dose i.v. injection) was performed 17 days post tumor inoculation. Values are mean±SEM; sample size, (n=5-12 mice per group). Initial tumor volume at day 0 was approximately 200-250 mm^3.
# Treatments (single dose i.v. injection) were performed 17 days post tumor inoculation. Values represent mean±SEM; sample size, (n=5-6 mice per group). Initial tumor volume at day 0 was approximately 300-325 mm^3. (FIG. 16).
# Treatment (single dose i.v. injection) was performed 14-17 days post tumor inoculation. Values are mean±SEM; sample size, (n=5-12 mice per group). Initial tumor volume at day 0 was approximately 200-250 mm3.
# [2] = Body weight change of female naive nude mice; assay type: in vivo; details: single dose i.v., 14 days, FIG. 12B
# Protocol: Body weight change of female naive nude mice after treatment with G1-(B1) was monitored at the indicated doses. Treatments (single dose i.v. injection) were performed at day 0. Values are mean±SEM; sample size, (n=4 mice per group). Initial body weight at day 0 was approximately 24 g. Body weight was measured every day for 14 days following drug treatment.
# [3] = PK of G1-(B1) ADCs in nude mice; assay type: in vivo
# From the text: Clearance, volume of distribution and half-life are in the typical range for ADCs.
# [4] = tested on: 92.1-luciferase subcutaneous xenografts; experiment: Immunohistochemical analysis of tumour tissue from 92.1-luciferase subcutaneous xenografts; assay type: in vivo, mice; details: 7.5 mg/kg, FIG. 12C
# Protocol: Immunohistochemical analysis of tumour tissue from 92.1-luciferase subcutaneous xenografts treated with vehicle, 3207-(B1) (7.5 mg/kg body weight), or G1-(B1) (7.5 mg/kg body weight) was performed. Tumors were fixed in 10% (vol/vol) neutral buffered formalin for 24 h at room temperature, then rinsed in PBS, processed for dehydration, cleared, and embedded in paraffin. 3 μm sections were prepared and processed for hematoxylin and eosin (H&E) staining and for immunohistochemistry. Immunohistochemical staining was performed on formalin-fixed, paraffin-embedded tissue sections using a Bond-RX (Leica) fully automated system for anti-hIgG (ThermoFischer) and anti-gp100 (PMEL17) (clone EP4863; Abcam) staining, and a Discovery XT (Ventana Medical System) fully automated system for anti-Ki67 (clone Sp6; NeoMarkers), anti-pERK1/2 (clone D13.14.4E; Cell Signaling), anti-MITF (Sigma) and anti-cleaved Caspase-3 (Cell Signaling) staining.
# GNAQ/11 = experiment: IP1 levels by TR-FRET in 92.1 uveal melanoma cells; assay type: cell-based; details: 92.1 cells, 2 days, FIG. 9
# Protocol: 92.1 uveal melanoma were treated with increasing concentrations of Compound (A1) or Compound (A2) as indicated. Following drug treatment overnight, cells were processed for determination of IP1 levels using TR-FRET (time-resolved fluorescent resonance energy transfer) or protein levels by western-blotting.
# 92.1 uveal melanoma were treated with DMSO, Compound (A1) (8 nM) and increasing concentrations of Isotype-(B1), anti-PMEL17-(B1) and anti-PMEL17-(B2) ADCs as indicated. Following drug treatment for 2 days, cells were processed for determination of IP1 levels using TR-FRET (time-resolved fluorescent resonance energy transfer). IP1 levels (nM) are presented as mean of 3 independent replicates.
# [5] = tested on: ADP-induced platelet aggregation; experiment: Whole blood platelet aggregation of naive mice after ADP activation; assay type: in vivo; details: ADP 6.5 uM
# Protocol: Whole blood platelet aggregation of naive mice treated with vehicle, G1-(B1) (20 mg/kg body weight), or Compound (A1) (0.01, 0.03, 0.1, and 0.3 mg/kg body weight) was tested. Animals were euthanized 5 min post single i.v. dosing and blood was collected via vena cava. After 1 h, whole blood aggregation was measured following platelet activation with ADP at 6.5 uM (FIG. 12D).
# Whole blood platelet aggregation of naive mice treated with vehicle and G1-(B1) (7.5 and 30 mg/kg body weight) at 24 h or 7 d post dosing was measured. Mice were euthanized 24 h or 7 d post single i.v. dosing and blood was collected via vena cava. After 1 h, whole blood aggregation was measured following platelet activation with ADP at 6.5 uM.
# 92.1 uveal melanoma = experiment: Resazurin-based viability assay, 92.1 uveal melanoma cells; assay type: cell-based; details: 96 or 120 hours, Table 9
# Protocol: (§2) Following drug treatment for 96 or 120 hours, cell viability and proliferation were determined using a resazurin-based viability assay. Briefly, cells were incubated with a resazurin-based solution and color change was detected by absorbance with a spectrophotometer and used as a readout of cell viability. Data presented as mean of 3 independent replicates and relative to PBS-treated cells (control).
# as §2, with “(control) (FIG. 6).” for “(control).”
# Following drug treatment for 96 or 120 hours, cell viability and proliferation were determined using a resazurin-based viability assay. Data presented as mean of 3 independent replicates and relative to PBS-treated cells (control) (FIG. 8).
# as §2
# MP41 = experiment: Resazurin-based viability assay, MP41 cells; assay type: cell-based; details: 96 or 120 hours, Table 9
# Protocol: as §2
# [6] = Free payload concentrations in tumor bearing mice; assay type: in vivo; details: targeted ADC vs isotype control 3207-(B1), FIG. 14B
# Protocol: In tumor bearing mice, free payload concentrations were measured after dosing either target binding G1-(B1) or isotype control 3207-(B1). A clear (>4-fold) increase in tumor delivery of Compound (A1) payload could be observed using the targeted ADC (FIG. 14B). The conversion of Compound (A1) (open circles) into its ring-opened form of Compound (A1) having the structure of Compound (A4)
# 92.1-luciferase cells = experiment: Liver and lung metastasis mouse model of uveal melanoma (92.1-luciferase i.v., bioluminescence); assay type: in vivo, NOD-Scid mice
# Protocol: Female NOD-Scid mice were intravenously injected with 92.1-luciferase cells (approximately 2 million cells per animal) and bioluminescence was measured twice a week to evaluate tumor formation. After 45 days all injected mice developed liver and lung metastases as detected by bioluminescence signal (BLI) (FIGS. 13A and 13B). Tumor bearing mice were treated with a single i.v. injection of G1-(B1) (20 mg/kg body weight) and bioluminescence was monitored over time as a readout of tumor progression. Individual pictures from each mice are presented at day 45 following i.v. injection of 92.1-luciferase cells (just before the initiation of treatment) and 12 days post treatment (FIGS. 13A and 13B); sample size, (n=6 mice per group). Initial BLI for liver metastasis at day 0 was approximately 2.8*10^9 p/sec/cm^2. Lung tumors (bioluminescence signal) in FIG. 13B are indicated by a black arrow.
# Corresponding body weight modulation (% vs day 15) was assessed 2-3 times per week prior and post treatment with G1-(B1) 20 mg/kg (grey circles). Values are mean±SEM; sample size, (n=5-6 mice per group). Initial body weight at day 15 was approximately 21 g.
molecule,measurement,setting,value
B1,apoptosis (Annexin V),92.1 cells,induced apoptosis in 92.1 cells in a dose-dependent manner
B2,antitumor activity,"[1]; 7.5 mg/kg single dose i.v., FIG. 16",comparable antitumor activity
same,tumor growth,"[1]; single i.v. injection, FIG. 12A",inhibited tumor growth in a dose-dependent manner
same,body weight,[2],No body weight loss was observed for up to 14 days after treatment
same,AUC extrap (%),[3]; 7.5 mg/kg,25 ± 9%
same,CL,[3]; 7.5 mg/kg,22 ± 7.2 mL/day/kg
same,Vz,[3]; 7.5 mg/kg,0.21 ± 0.01 L/kg
same,app. telim,[3]; 7.5 mg/kg,176 ± 37 h
same,AUClast (ug/mL*h) dose normaliz.,"[3]; 7.5 mg/kg, dose normalised",904 µg·h/mL
same,AUC extrap (%),[3]; 30 mg/kg,38 ± 3%
same,CL,[3]; 30 mg/kg,9.6 ± 1.2 mL/day/kg
same,Vz,[3]; 30 mg/kg,0.15 ± 0.01 L/kg
same,app. telim,[3]; 30 mg/kg,259 ± 25 h
same,exposure with dose,"[3]; total IgG levels, FIG. 14A",slightly over-proportional increase of exposure with dose between 7.5 and 30 mg/kg
same,MITF and PMEL17 levels (IHC),[4],No changes were observed in MITF and PMEL17 levels
same,pERK and Ki67 levels (IHC),[4],reduced levels of pERK and Ki67
same,cell apoptosis (cleaved Caspase-3 IHC),[4]; compared to vehicle and 3207-(B1),induced cell apoptosis
same,GNAQ/11 inhibition (IP1 levels),GNAQ/11,inhibit mutant GNAQ and GNA11 in a dose-dependent manner
same,ADP-induced platelet aggregation in vivo,"[5]; 20 mg/kg, 5 min post single i.v. dosing, FIG. 12D",did not have any significant effect on ADP-induced platelet aggregation in vivo
same,platelet aggregation inhibition,"[5]; 7.5 and 30 mg/kg, 24 h or 7 d post dosing, FIG. 12E",No platelet aggregation inhibition was observed
same,GI50,92.1 uveal melanoma,0.722 nM
same,GI50,MP41,0.563 nM
same,increase in tumor delivery of Compound (A1) payload,[6],> 4 fold
same,apoptosis (Annexin V),92.1 cells,induced apoptosis in 92.1 cells in a dose-dependent manner
same,body weight,"92.1-luciferase cells; 20 mg/kg, FIG. 13C",body weight restoration
same,liver and lung metastases (bioluminescence),"92.1-luciferase cells; single i.v. dose of 20 mg/kg, 12 days post treatment",induced regression of liver and lung metastases
B3,GI50,92.1 uveal melanoma,0.85 nM
same,GI50,MP41,0.582 nM
B4,GI50,92.1 uveal melanoma,0.811 nM
same,GI50,MP41,0.654 nM
